# Measured values: the RNAGym collection of RNA variant scans (doi:10.1093/nar/gkz1192)
# Read counts are not given, so values of variants with three or more changes are uncertain.
# B1: CPEB3 Ribozyme (parent)
# chain: UAACAGGGGGCCACAGCAGAAGCGUUCACGUCGCAGCCCCUGUCAGAUUCUGGUGAAUCUGCGAAUUCUGCUGUAUAUCUC
# Variants of: B1
# Test: self-cleavage, relative activity (ratio to wild type); higher = more cleavage; in vitro, sequencing
# Method in brief: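 Relative activity compares each variant's cleaved/total read fraction with that of the unmutated ribozyme. To get these fractions, barcoded CPEB3 ribozyme libraries from rounds of error-prone PCR were transcribed with T7 RNA polymerase for 5 hours at 37°C and then given 15 min of DNase I treatment before EDTA was added. The RNAs were reverse transcribed with template switching and sequenced on Illumina, and DNA sequencing linked barcodes to variants. A minimum of 5 reads applied, and three batches were averaged.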
row,Variant,self-cleavage
1,A18U A47U U48C U51C A77C,0.07
2,A18U A57G C71A,0.22
3,A18U A57G U69C,0.43
4,A18U A57G U78C,0.17
5,A18U A64G A77G,0.26
6,A18U A64G U74A,0.32
7,A18U A65G U66C,0.16
8,A18U A65U C68A,0.13
9,A18U C23U A45C U48C G70U U78C,0.11
10,A18U C23U A45G U60A A65G U80C,0.06
11,A18U C27A A35G C39G U49C,0.07
12,A18U C29A A64G,0.18
13,A18U C29G U41A U54C A57U U78C,0.05
14,A18U C32A U41C,0.14
15,A18U C34A U41C U49C U60G A77G,0.05
16,A18U C37U U48C G55A,0.11
17,A18U C37U U49C A64G,0.06
18,A18U C38A A47G,0.22
19,A18U C38G U41C,0.12
20,A18U C39G U54C,0.17
21,A18U C39U U48C U49G,0.08
22,A18U C40G U41C U58G U60C C62G U67C,0.08
23,A18U C40U U49G,0.11
24,A18U C44A U60C U67C,0.13

row,Variant,self-cleavage
1,A18U C59A C62U A65G,0.15
2,A18U G19A A45G U69C,0.12
3,A18U G19C A35G,0.3
4,A18U G19U U26A C50U,0.05
5,A18U G24A C40U U74C,0.21
6,A18U G24A U25C A47G U48C A57G,0.03
7,A18U G24A U26C U80C,0.07
8,A18U G24C A28G G42A A45C U48A U69A,0.09
9,A18U G24C U72A,0.09
10,A18U G30U U67A,0.09
11,A18U G33A C81U,0.16
12,A18U G33A U60C U72A U74A,0.07
13,A18U G42A C81U,0.36
14,A18U G52U C68U G73C A75G,0.57
15,A18U G61A U69A,0.95
16,A18U U25A U26G C32U A35C U49C A77U,0.06
17,A18U U25C A35C A56G,0.06
18,A18U U25C A47U U49C U54C U76A,0.04
19,A18U U25C A47U U60C A64G A77C,0.06
20,A18U U25C A56G A64G A77G,0.06
21,A18U U25C C39U A45G,0.11
22,A18U U25C G30A,0.15
23,A18U U25C G73A U76C,0.42
24,A18U U25C U31C U49C U58C U66G U74C,0.05

row,Variant,self-cleavage
1,A18U U25C U41A C50U A57G,0.08
2,A18U U25G A47G A57U A65C,0.16
3,A18U U26A A47U,0.39
4,A18U U26A A75G,0.15
5,A18U U26A C59A,0.19
6,A18U U26A U41C A47G U48C U72C,0.25
7,A18U U26C G33A U41C C62G,0.11
8,A18U U26C U41C,0.2
9,A18U U26C U43A,0.3
10,A18U U26C U54A U74C,0.18
11,A18U U26C U58C A64U U76C,0.14
12,A18U U31A A56U,0.11
13,A18U U31A U67C U74A,0.12
14,A18U U31C A45G U58G A75U U76C,0.27
15,A18U U31C G33A A45U U72G U78C,0.13
16,A18U U31C U49C U60A A65U,0.06
17,A18U U31C U54C G55U U66C,0.1
18,A18U U31C U66C U69C,0.09
19,A18U U41A U43A U54A U69A U80A,0.07
20,A18U U41A U51A A64U,0.07
21,A18U U41C A57G U60C U69C,0.28
22,A18U U41C A65G U67A U78C,0.42
23,A18U U41C G52C,0.33
24,A18U U41C G61A U69A C79U U80A,1.12

row,Variant,self-cleavage
1,A18U U41C U43C,0.26
2,A18U U41C U49C A64U U67A,0.17
3,A18U U41C U51A A64G U66C U78C,0.23
4,A18U U41C U60C,0.25
5,A18U U41C U60C A75G,0.2
6,A18U U41C U67A,0.36
7,A18U U43A U66C U67C,0.44
8,A18U U43C U72A U78C,0.06
9,A18U U48A U60C,0.06
10,A18U U48C U67C,0.12
11,A18U U49C U67A,0.04
12,A18U U49C U80C,0.22
13,A18U U51C U60C,0.31
14,A18U U51C U60C U78C,0.23
15,A18U U54A A56G,0.29
16,A18U U54A A56G U69C A75G,0.13
17,A18U U54C A57G,0.15
18,A18U U60C A75G,0.58
19,A18U U66C A75C,0.29
20,A18U U66C U67A U72C U76A,0.17
21,G19A A20G U76A,0.23
22,G19A A21G A28U U58C U74A,0.21
23,G19A A21G U26C U41A U67C,0.07
24,G19A A28G A45G A56G A75G U80C,0

row,Variant,self-cleavage
1,G19A A28G U41C A45G U66C U76C,0.13
2,G19A A35G A64G U69C U76G,0.17
3,G19A A35G G36C U41A A56G U67A,0.07
4,G19A A45G U60C U76A,0.13
5,G19A C29G U31C,0.15
6,G19A C34A A35U A45G U72A,0.21
7,G19A C44A A56G U78G,0.15
8,G19A G33A A56G U80C,0.07
9,G19A U25C A28G C34A A45G U72A,0.13
10,G19A U25C A35G,0.16
11,G19A U26A A28G U31C C40U U67C U76A,0.04
12,G19A U26A A56U U60A U66C U69C,0.08
13,G19A U26C U31C C37G U69A,0.06
14,G19A U26C U80C,0.48
15,G19A U41A A56U,0.16
16,G19A U48C C79U,0.07
17,G19A U49A U80C,0.11
18,G19A U49C C59A,0.14
19,G19A U51G U72A,0.07
20,G19C A20G G30U A64G U66C U69A,0.06
21,G19C A21G C29U A57G U67A,0.05
22,G19C A21U G63C C71A,0.03
23,G19C A28C C32A A35U U58C,0.15
24,G19C A28U U41C,0.19

row,Variant,self-cleavage
1,G19C A28U U41G,0.07
2,G19C A35G U51C A77U U78C,0.51
3,G19C A47G A64G U74A,0.09
4,G19C A56G U69A U72C U80C,0.24
5,G19C C37U A57G C62U,0.1
6,G19C G30U A64G U76C,0.18
7,G19C U25C U26C,0.34
8,G19C U26A A28U U41C U69C U72A,0.05
9,G19C U31A U41A,0.26
10,G19C U31C A47G U48C A57G U80C,0.42
11,G19C U49A U67C,0.14
12,G19C U51C A56G U66C,0.13
13,G19C U54A A56U A64G U72C U78C,0.08
14,G19C U58C U72A U76C A77G,0.07
15,G19C U69C U72C,0.15
16,G19U A21G U31C C50A,0.21
17,G19U A21G U43A,0.29
18,G19U A28G A57G A77G,0.13
19,G19U A28U A45G U54C U78G,0.14
20,G19U A35G U54C U78C,0.34
21,G19U A35G U69A,0.29
22,G19U A45C G46U,0.18
23,G19U A64G U66C U78C,0.12
24,G19U C23U A57U,0.47

row,Variant,self-cleavage
1,G19U C29A U41C A57G U67C U76G,0.08
2,G19U C32U C34U U76A,0.18
3,G19U G22U U26A U80C,0.07
4,G19U G24A A28G A45G U69C A77G,0.08
5,G19U G24A U41C U54A,0.25
6,G19U G55A A57G U60C,0.11
7,G19U U25C A45U G46A C50A U69A,0.09
8,G19U U31A C34U G52A A56G U60A,0.07
9,G19U U31C A56U,0.35
10,G19U U41A A77G,0.42
11,G19U U41A U78C,0.2
12,G19U U41C G61A U66C C81U,0.15
13,G19U U41G A65G U67A A75U,0.19
14,G19U U49C U66A,0.07
15,G19U U51A U54G,0.13
16,G19U U54A G73A,0.73
17,G19U U67C U78C,0.08
18,G19U U69A U72C,0.12
19,G19U U72A U76C,0.28
20,A20C A21G A28U U51A A56C A75G,0.06
21,A20C A21G U48C,0.24
22,A20C A21G U60C,0.06
23,A20C A57G U78A,0.03
